According to the supplement of paper PMC10600219:
Where “and” joins values, the source holds several entries; their conditions need not be identical. Equal entries are not always repeated. Structures can show the parent of a compound that is named as a salt. Whole data set: some 2,800 compounds, median “cell viability relative to vehicle” near 1.1, cut for the lowest 2% near 0.19. Some of the results follow.

These compounds were tested on NCI-H2228 parental (assay: cell viability relative to vehicle (fraction of vehicle); NCI-H2228 is an ALK-positive lung cancer line and DTP means drug-tolerant persister; higher = less growth inhibition). Conditions: 100 nM; treatment time 6 days.
Summary of the method: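 Drug-tolerant persister NCI-H2228 cells, produced by 13 days in 1000 nM of a targeted drug, and their parental counterparts were seeded into 384-well plates and, the following day, given the 3114-agent TargetMol anti-cancer compound library at 100 nM or DMSO vehicle. After 6 days, the CellTiter-Glo 3D Cell Viability Assay was used to read ATP. Each entry reports viability compared with vehicle-treated cells.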
Compound `CONC(=O)c1ccccc1Nc1cc(Nc2cc(C)nn2C(C)C)ncc1Cl` has a cell viability of 0.962.
Compound `COc1cc2c(c(OC)c1OC)-c1c(cc3c(c1OC)OCO3)C[C@H](C)[C@](C)(O)C2` [Gomisin A] has a cell viability of 0.967.
`OC[C@@H](O)[C@@H](O)[C@H](O)[C@H](O)CO` [D-Mannitol] was tested, and the cell viability was 1.13.
For `CC(=O)OCC(=O)NCCCOc1cccc(CN2CCCCC2)c1` [Roxatidine Acetate hydrochloride], the cell viability was 1.02.
`CCCCCCCCC(=O)N[C@H](CN1CCCC1)[C@H](O)c1ccc2c(c1)OCCO2` gave a cell viability of 1.1.
`CCn1cc(C(=O)O)c(=O)c2cc(F)c(N3CCNCC3)nc21` [Enoxacin Sesquihydrate] gave a cell viability of 1.01.
`CCn1cc(C(=O)O)c(=O)c2cc(F)c(N3CCNCC3)nc21` [Enoxacin] showed a cell viability of 0.966.
`CC(C(=O)O)c1cccc(Oc2ccccc2)c1` (centres undefined) [Fenoprofen calcium dihydrate] was tested, and the cell viability was 1.09.
`CC(C)[C@H](NC(=O)CCCCCN1C(=O)C=CC1=O)C(=O)N[C@@H](CCCNC(N)=O)C(=O)Nc1ccc(COC(=O)Oc2ccc([N+](=O)[O-])cc2)cc1` was tested, and the cell viability was 0.848.
In the case of `COCCOc1nc(-c2ccc(Cl)c(Cl)c2)n(-c2ccc(NC(=O)CCl)cc2)n1` [MI 2 (MALT1 inhibitor)], the cell viability was 1.09.
Work on `O=C1NC(=O)C(c2ccccc2[N+](=O)[O-])=C1Nc1ccc(O)c(Cl)c1` yielded a cell viability of 0.948.
`O=C1NC(=O)/C(=C/c2ccc3nccc(-c4ccncc4)c3c2)S1` gave a cell viability of 1.11.
Work on `C/C(=C1/C(=O)Nc2ccc(NC(N)=O)cc21)c1ccc[nH]1` yielded a cell viability of 1.13.
Compound `C=CC(C)(O)CCC=C(C)CCC=C(C)C` (mixture of isomers) [nerolidol] has a cell viability of 0.91.
Compound `N#C/C(=C\c1ccc(O)c(O)c1)C(=O)Nc1ccccc1` has a cell viability of 1.
`COc1ccc([C@@H]2OC[C@H]3[C@@H]2CO[C@@H]3c2ccc(O[C@@H]3O[C@H](CO)[C@@H](O)[C@H](O)[C@H]3O)c(OC)c2)cc1OC` [Forsythin] was tested, and the cell viability was 1.
`Cc1c(Cl)cccc1Nc1ccccc1C(=O)O` [Tolfenamic Acid] showed a cell viability of 0.939.
In the case of `CCCSc1ccc2[nH]c(NC(=O)OC)nc2c1` [Albendazole], the cell viability was 0.85.
`CC(=O)C1=C(O)C=C2Oc3c(C(C)=O)c(O)c(C)c(O)c3C2(C)C1=O` (stereo in doubt) [Usnic Acid] was tested, and the cell viability was 1.15.
Compound `c1ccc(-c2nc(-c3ccc(-c4nc(-c5ccccc5)c(-c5ccccc5)[nH]4)cc3)[nH]c2-c2ccccc2)cc1` has a cell viability of 1.05.
With `CO[C@H]1/C=C/O[C@@]2(C)Oc3c(C)c(O)c4c(O)c(c(/C=N/N5CCN(C)CC5)c(O)c4c3C2=O)NC(=O)/C(C)=C\C=C\[C@H](C)[C@H](O)[C@@H](C)[C@@H](O)[C@@H](C)[C@H](OC(C)=O)[C@@H]1C` [Rifampicin] the cell viability was 1.16.
With `CC(C)Nc1cc(-c2c[nH]c(C(=O)N[C@H](CO)c3cccc(Cl)c3)c2)c(Cl)cn1` [Ulixertinib] the cell viability was 1.09.
`Cc1ccc(N(CC2=NCCN2)c2cccc(O)c2)cc1` [Phentolamine mesilate] gave a cell viability of 1.2.
For `CCc1ccc(CCOc2ccc(CC3SC(=O)NC3=O)cc2)nc1` (centres undefined) [Pioglitazone], the cell viability was 0.977.
`COc1c(O)cc2occ(-c3ccc(O)cc3)c(=O)c2c1O` [Tectorigenin] was tested, and the cell viability was 1.
`c1ccc(CC2=NCCN2)cc1` [Tolazoline hydrochloride] was tested, and the cell viability was 1.1.
`OCCN1CCN(CCCN2c3ccccc3Sc3ccc(C(F)(F)F)cc32)CC1` [Fluphenazine hydrochloride] was tested, and the cell viability was 1.1.
Work on `CC(C)(Oc1ccc(CCNC(=O)c2ccc(Cl)cc2)cc1)C(=O)O` [Bezafibrate] yielded a cell viability of 1.22.
`O=C(c1cc(Cc2n[nH]c(=O)c3ccccc23)ccc1F)N1CCN(C(=O)C2CC2)CC1` [Olaparib] was tested, and the cell viability was 1.05.
`O=C(O)CCc1nc(-c2ccccc2)c(-c2ccccc2)o1` [Oxaprozin] showed a cell viability of 1.11.
`CC(C(=O)O)c1ccc(CC2CCCC2=O)cc1` (centres undefined) [Loxoprofen] showed a cell viability of 1.2.
Work on `CC[C@H]1OC(=O)[C@H](C)[C@@H](O[C@H]2C[C@@](C)(OC)[C@@H](O)[C@H](C)O2)[C@H](C)[C@@H](O[C@@H]2O[C@H](C)C[C@H](N(C)C)[C@H]2O)[C@](C)(O)C[C@@H](C)C(=O)[C@H](C)[C@@H](O)[C@]1(C)O` [Erythromycin] yielded a cell viability of 1.02.
For `CC1=C(/C=C/C(C)=C/C=C/C(C)=C/C=C/C=C(C)/C=C/C=C(C)/C=C/C2=C(C)CCCC2(C)C)C(C)(C)CCC1` [Beta-Carotene], the cell viability was 1.07.
`CC1(C)CCC(c2ccc(Cl)cc2)=C(CN2CCN(c3ccc(C(=O)NS(=O)(=O)c4ccc(N[C@H](CCN5CCOCC5)CSc5ccccc5)c(S(=O)(=O)C(F)(F)F)c4)cc3)CC2)C1` [Navitoclax] was tested, and the cell viability was 1.19.
`NC(=O)c1ccccc1O` [Salicylamide] was tested, and the cell viability was 1.1.
`CCOC(=O)N1CCC(=C2c3ccc(Cl)cc3CCc3cccnc32)CC1` [Loratadine] gave a cell viability of 0.998.
`COc1ccc(S(=O)(=O)/N=C2\C=CC=C\C2=C/C=C2C=CN(O)C=C2)cc1` gave a cell viability of 0.87.
With `Nc1nc(F)nc2c1ncn2[C@@H]1O[C@H](COP(=O)(O)O)[C@@H](O)[C@@H]1O` [Fludarabine Phosphate] the cell viability was 1.12.
`O=C(NOCC1CC1)c1ccc(F)c(F)c1Nc1ccc(I)cc1Cl` showed a cell viability of 0.849.
With `COc1ccc(-c2coc3cc(O)ccc3c2=O)cc1` [Formononetin] the cell viability was 1.18.
Work on `CN1CCN(S(=O)(=O)c2ccc(-c3cnc(N)c(C(=O)Nc4cccnc4)n3)cc2)CC1` yielded a cell viability of 1.07.
Compound `CC(CN1CC(=O)N(CN2CCOCC2)C(=O)C1)N1CC(=O)N(CN2CCOCC2)C(=O)C1` (centres undefined) [Probimane] has a cell viability of 1.
`Cc1ccc2c(c1)C(=O)C1(O)CCN(c3ccccc3)C1=N2` (single isomer, unassigned; (-)) [(-)-Blebbistatin] was tested, and the cell viability was 1.06.
With `CC(C)C[C@H](NC(=O)[C@H](Cc1ccccc1)NC(=O)c1cnccn1)B(O)O` [Bortezomib] the cell viability was 0.067.
Work on `COc1ccc(CC(C)NCC(O)c2ccc(O)c(NC=O)c2)cc1` (centres undefined) [Formoterol Hemifumarate] yielded a cell viability of 0.986.
In the case of `COc1ccc(CC(C)NCC(O)c2ccc(O)c(NC=O)c2)cc1` (centres undefined) [Formoterol], the cell viability was 1.02.
`CS(=O)(=O)c1ccc(C(=O)Nc2ccc(Cl)c(-c3ccccn3)c2)c(Cl)c1` [Vismodegib] gave a cell viability of 0.933.
Compound `CNC(=O)c1cc(Oc2ccc(NC(=O)c3cccc(C(F)(F)F)c3)cc2)ccn1` has a cell viability of 1.11.
Work on `CC1(C)CC[C@]2(C(=O)O)CC[C@]3(C)C(=CC[C@@H]4[C@@]5(C)CCC(=O)C(C)(C)[C@@H]5CC[C@]43C)[C@@H]2C1` [Oleanonic Acid] yielded a cell viability of 1.12.
`NC(=O)N1CCC(CC(=O)N2CCC([C@H]3c4ncc(Br)cc4CCc4cc(Cl)cc(Br)c43)CC2)CC1` [Lonafarnib] was tested, and the cell viability was 0.726.
`C[C@H](N[C@@H](CCc1ccccc1)C(=O)O)C(=O)N1CCC[C@H]1C(=O)O` [Enalaprilat Dihydrate] was tested, and the cell viability was 1.09.
Work on `O=C(Nc1cc(C(F)(F)F)cc(C(F)(F)F)c1)c1cc(Cl)ccc1O` yielded a cell viability of 1.03.
With `O=C1/C(=C/c2cccs2)CC/C1=C\c1cccs1` the cell viability was 1.11.
With `NC(=O)N[C@@H](CCC(=O)O)C(=O)O` [Carbaglu] the cell viability was 1.08.
`COCCCC/C(=N\OCCN)c1ccc(C(F)(F)F)cc1` [Fluvoxamine maleate] gave a cell viability of 1.12.
For `C(=N\NC1=NCCN1)/c1c2ccccc2c(/C=N/NC2=NCCN2)c2ccccc12` [Bisantrene], the cell viability was 1.01.
`O=C(NC[C@H]1CN(c2ccc(N3CCOCC3=O)cc2)C(=O)O1)c1ccc(Cl)s1` [Rivaroxaban] showed a cell viability of 0.974.
In the case of `COc1cc(N2CCC(N3CCN(C)CC3)CC2)ccc1Nc1ncc(Cl)c(-c2c[nH]c3ccccc23)n1`, the cell viability was 0.358.
Compound `O=C(O)Cc1ccc(-c2ccccc2)cc1` [4-Biphenylacetic acid] has a cell viability of 1.1.
For `COC(=O)c1ccc2c(c1)nc(NC(=O)c1ccccc1)n2CCCc1ccccc1`, the cell viability was 1.03.
Compound `CN1CCN(Cc2ccc(Nc3ncc(Cl)c(Nc4ccccc4S(=O)(=O)N(C)C)n3)cc2)CC1` has a cell viability of 0.0869.
`c1ccc(NCc2ccc(CNc3ccccn3)cc2)nc1` was tested, and the cell viability was 0.814.
`N=C(NCCCCCCNC(=N)NC(=N)Nc1ccc(Cl)cc1)NC(=N)Nc1ccc(Cl)cc1` [Chlorhexidine] showed a cell viability of 1.08.
`N=C(NCCCCCCNC(=N)NC(=N)Nc1ccc(Cl)cc1)NC(=N)Nc1ccc(Cl)cc1` [Chlorhexidine hydrochloride] was tested, and the cell viability was 0.965.
For `Cn1c(=O)c2c(ncn2CC(=O)Nc2ccc(-c3ccccc3)nn2)n(C)c1=O`, the cell viability was 0.995.
With `COc1ccc2c(OCc3nnc4ccc(-c5ccccc5)nn34)ccnc2c1` the cell viability was 1.13.
`COc1c2occc2cc2ccc(=O)oc12` [8-Methoxypsoralen] showed a cell viability of 1.24.
`CC(C)CC(N)=O` [Isovaleramide] showed a cell viability of 1.15.
In the case of `CC1(C)CC[C@]2(C(=O)O[C@@H]3O[C@H](CO)[C@@H](O)[C@H](O)[C@H]3O)CC[C@]3(C)C(=CC[C@@H]4[C@@]5(C)CC[C@H](O[C@@H]6O[C@H](C(=O)O)[C@@H](O)[C@H](O)[C@H]6O)C(C)(C)[C@@H]5CC[C@]43C)[C@@H]2C1` [Chikusetsusaponin IVa], the cell viability was 1.04.
Work on `CN1CCN(C2=Nc3ccccc3Oc3ccc(Cl)cc32)CC1` [Loxapine succinate salt] yielded a cell viability of 1.13.
`CCOC(=O)[C@@H](N)Cc1ccc(-c2cc(O[C@H](c3ccc(Cl)cc3-n3ccc(C)n3)C(F)(F)F)nc(N)n2)cc1` [Telotristat Etiprate] showed a cell viability of 1.15.
With `O=C(O)c1ccc(S(=O)(=O)NC2CCCCC2)cc1` the cell viability was 0.986 and 1.12.
With `C[N+]1(C)CCC(OC(=O)C(O)(c2ccccc2)C2CCCC2)C1` (centres undefined) [Glycopyrrolate] the cell viability was 0.836.
`CCCCCCCCCCCCCCCCCCOCC(O)CO` (centres undefined) [Batyl alcohol] gave a cell viability of 0.988.
